This is one part of the list.
Each sequence was assayed on PF3D7_0420300 AP2 domain 1 (GST-tagged) (assay: gcPBM binding intensity (ln(normalized median fluorescence intensity)); higher = stronger DNA binding).
Procedure, shortened: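 Using an Agilent 4 × 180k array, primer-extended double-stranded 36-bp intergenic genomic probes and negative controls were exposed for 1 h to GST-fused P. falciparum DNA-binding domains expressed in E. coli. Binding was carried out in 1× PBS with 1% milk, 0.2 mg/ml BSA, 0.5% salmon testes DNA and 0.03% Triton X-100, and protein was detected with Alexa488 anti-GST antibody and a 488 nm scan. Binding intensity is the highest Masliner-normalised natural-log median intensity across replicate spots of either probe orientation.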

Row | Sequence | gcPBM binding intensity (ln)
1 | AAAAAAAATAAAAATAAAAATAAAAATAAAAATAAA [GTGCAC_negctrl_site437] | 8.9
2 | TATCATTTTGTATATAGTACATATATAAAATCGTTA [XGTACX_site3875] | 8.98
3 | ATAAAAATAACATATAAACACACATATATATATATA [CACACA_site9267] | 9.35
4 | CAAGCACCCAGACACACACACACACCCACACCCACA [CACACA_site369] | 10.2
5 | GGAATATTTATACATACACACATATATTTATTTATA [CACACA_site6883] | 9.53
6 | AGTCATTAAATATAATGTACATGGAAAAACAGCTGA [XGTACX_site7944] | 9.42
7 | ATGTAGACATAATGGGGTACAAAAAAAAAAAAAAAA [XGTACX_site881] | 9
8 | AATAATTGTTAAAGGTGTACAATACGTATGTAAGAA [XGTACX_site1328] | 9.53
9 | AACAGATATATATGTAGTACATGTTCTAGATATTTT [XGTACX_site1208] | 9.21
10 | AATATAAACATAGATAGATAAATAAATAAATAAACA [GTGCAC_negctrl_site567] | 9.43
11 | GACAAATTATTGTGTACACAATATTATTATATATAC [CACACA_site6020] | 9.44
12 | ACAAATAAAAATATTACACACACTATTCTAGTGATA [CACACA_site6812] | 9.46
13 | TAAATATATATAATTACACACTTTTCTATAATATGA [CACACA_site711] | 9.26
14 | CTTATGTTTTTTAAGTGTACATATTATACGTATTAT [XGTACX_site1176] | 9.45
15 | TTAAGATATATAAAGAGTACACATAAGAGTAATGCT [XGTACX_site58] | 9.38
16 | TATAATACATTATATTGTACTATATTATAATAAATT [XGTACX_site5934] | 9.15
17 | ATATTACCCATATATGCACACATTGTAGTTATTTAT [CACACA_site2636] | 9.89
18 | ATATAATTACCATATGGTACACACATATATATATGT [XGTACX_site7393] | 9.72
19 | TTTTGTAGCAAAAAATAGGAAAAAAAAAAATTAAAT [GTGCAC_negctrl_site8] | 9.13
20 | TTAAGATACAAAAAAGTGCATATTTTTTAACAAAAA | 9.09
21 | CACATACCCATACAAACACACATTATATATATATAT [CACACA_site4965] | 9.6
22 | AAAAAAAAAAAAAAAACACACATAAATAGCTCAAAT [CACACA_site3973] | 9.64
23 | GATATATAAATAGATACACACATACATACATACATA [CACACA_site6260] | 9.73
24 | ATATCGTGTGCATTAACACACATTTATTTGAATAAA [CACACA_site7162] | 9.35
25 | TACGATTAAAAAAAATGTACAGATTTTTATAGAATA [XGTACX_site6561] | 8.93

From the supplement of paper PMC11417369
